# The supplement of paper PMC8728848
# This is one part of the list.
# Experiments:
# Experiment in all cases: glycan array binding signal (z-score within array); higher = stronger binding
# Settings in all cases: glycan notation: IUPAC condensed, linker removed
# [1] = target: Fuc(a1-3)[Gal3S(b1-4)]GlcNAc6S
# Summary of the method: (§1)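 Arrays were curated from the Consortium for Functional Glycomics database, 3228 in total, and kept only where the protein sequence was available. Binding is expressed as a within-array Z-score. This score was averaged across arrays of the same protein sequence at different concentrations or buffers and across linkers, and negative values can be read as non-binding.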
# [2] = target: Fuc(a1-3)[GalNAc(b1-4)]GlcNAc
# Summary of the method: as §1
# [3] = target: Fuc(a1-3)[GalNAc(b1-4)]GlcNAc6S
# Summary of the method: as §1
# Fuc(a1-4)GlcNAc = target: Fuc(a1-4)GlcNAc
# Summary of the method: as §1
# Fuc(b1-3)GlcNAc = target: Fuc(b1-3)GlcNAc
# Summary of the method: as §1
# Gal(a1-2)Gal = target: Gal(a1-2)Gal
# Summary of the method: as §1
# Gal(a1-3)Gal = target: Gal(a1-3)Gal
# Summary of the method: as §1
# Gal(a1-3)Gal(b1-3)GlcNAc = target: Gal(a1-3)Gal(b1-3)GlcNAc
# Summary of the method: as §1
# [4] = target: Gal(a1-3)Gal(b1-3)GlcNAc(b1-2)Man
# Summary of the method: as §1
# [5] = target: Gal(a1-3)Gal(b1-3)GlcNAc(b1-2)Man(a1-3)[Gal(a1-3)Gal(b1-3)GlcNAc(b1-2)Man(a1-6)]Man(b1-4)GlcNAc(b1-4)GlcNAc
# Summary of the method: as §1
# [6] = target: Gal(a1-3)Gal(b1-3)GlcNAc(b1-3)GalNAc
# Summary of the method: as §1
# [7] = target: Gal(a1-3)Gal(b1-3)GlcNAc(b1-6)GalNAc
# Summary of the method: as §1
# [8] = target: Gal(a1-3)Gal(b1-3)[Fuc(a1-4)]GlcNAc(b1-2)Man(a1-3)[Gal(a1-3)Gal(b1-3)[Fuc(a1-4)]GlcNAc(b1-2)Man(a1-6)]Man(b1-4)GlcNAc(b1-4)GlcNAc
# Summary of the method: as §1
# Gal(a1-3)Gal(b1-4)Glc = target: Gal(a1-3)Gal(b1-4)Glc
# Summary of the method: as §1
# Gal(a1-3)Gal(b1-4)GlcNAc = target: Gal(a1-3)Gal(b1-4)GlcNAc
# Summary of the method: as §1
# [9] = target: Gal(a1-3)Gal(b1-4)GlcNAc(b1-2)Man
# Summary of the method: as §1
# [10] = target: Gal(a1-3)Gal(b1-4)GlcNAc(b1-2)Man(a1-3)[Gal(a1-3)Gal(b1-4)GlcNAc(b1-2)Man(a1-6)]Man(b1-4)GlcNAc(b1-4)GlcNAc
# Summary of the method: as §1
# [11] = target: Gal(a1-3)Gal(b1-4)GlcNAc(b1-3)GalNAc
# Summary of the method: as §1
# [12] = target: Gal(a1-3)Gal(b1-4)GlcNAc(b1-6)GalNAc
# Summary of the method: as §1
# [13] = target: Gal(a1-3)Gal(b1-4)[Fuc(a1-3)]GlcNAc
# Summary of the method: as §1
# [14] = target: Gal(a1-3)Gal(b1-4)[Fuc(a1-3)]GlcNAc(b1-2)Man(a1-3)[Gal(a1-3)Gal(b1-4)[Fuc(a1-3)]GlcNAc(b1-2)Man(a1-6)]Man(b1-4)GlcNAc(b1-4)GlcNAc
# Summary of the method: as §1
# Gal(a1-3)GalNAc = target: Gal(a1-3)GalNAc
# Summary of the method: as §1
# [15] = target: Gal(a1-3)[Gal(a1-4)]Gal(b1-4)GlcNAc
# Summary of the method: as §1
# [16] = target: Gal(a1-4)Gal(b1-3)GlcNAc(b1-2)Man(a1-3)[Gal(a1-4)Gal(b1-3)GlcNAc(b1-2)Man(a1-6)]Man(b1-4)GlcNAc(b1-4)GlcNAc
# Summary of the method: as §1
# Gal(a1-4)Gal(b1-4)Glc = target: Gal(a1-4)Gal(b1-4)Glc
# Summary of the method: as §1
# Gal(a1-4)Gal(b1-4)GlcNAc = target: Gal(a1-4)Gal(b1-4)GlcNAc
# Summary of the method: as §1
# [17] = target: Gal(a1-4)Gal(b1-4)GlcNAc(b1-2)Man(a1-3)[Gal(a1-4)Gal(b1-4)GlcNAc(b1-2)Man(a1-6)]Man(b1-4)GlcNAc(b1-4)GlcNAc
# Summary of the method: as §1
# [18] = target: Gal(a1-4)Gal(b1-4)GlcNAc(b1-3)Gal(b1-4)Glc
# Summary of the method: as §1
# Gal(a1-4)GlcNAc = target: Gal(a1-4)GlcNAc
# Summary of the method: as §1
# Gal(a1-6)Glc = target: Gal(a1-6)Glc
# Summary of the method: as §1
# Gal(b1-2)Gal = target: Gal(b1-2)Gal
# Summary of the method: as §1
# Gal(b1-3)Gal = target: Gal(b1-3)Gal
# Summary of the method: as §1
# Gal(b1-3)Gal(b1-4)GlcNAc = target: Gal(b1-3)Gal(b1-4)GlcNAc
# Summary of the method: as §1
# Gal(b1-3)GalNAc = target: Gal(b1-3)GalNAc
# Summary of the method: as §1
# [19] = target: Gal(b1-3)GalNAc(a1-3)[Fuc(a1-2)]Gal(b1-4)Glc
# Summary of the method: as §1
# [20] = target: Gal(b1-3)GalNAc(a1-3)[Fuc(a1-2)]Gal(b1-4)GlcNAc
# Summary of the method: as §1
# Gal(b1-3)GalNAc(b1-3)Gal = target: Gal(b1-3)GalNAc(b1-3)Gal
# Summary of the method: as §1
binder,measurement,setting,value
PX9961H-bth-557-24-557 (Bacteroides thetaiotaomicron) (protein) EETRTEVEKKNYMNNAEEAKDVLLGVYRTNTLDAMYGYYLSILFNLGTDISQVEGSGNENFRIIPTNSFPTTQSEVQQTWAALYTGIYRANDFLERISNKIGSYTTTDKKLATLYIAEARALRGMFYFELVRRFGNVVLMTSTQMSNQNPATYVQSAPEKVYEYIEDDLLYACDILPYATDDQYRESNDYRFSKGAALGLLTKVYATWAGYPVKDESKWEAAAKTARILVESGKHGLLKDYEQLWKNTCNGTWDPTESLIEISFYSPTVSGNSDPVGRIGKWNGVKTTAIAGVRGSCAANVKVVHTFVLDWREDVSDIRRDLSIANYQYTDTKKSLWVAGASDTDESAAEKDADPTKAQKNKQNYTPAKWDIQKYVTTNSFINNDKSNVNWYFLRYADVLLLYAEALNEWKHGPDAEAYNAINAVRRRGYGNPSNTSACDLPQGLDETSFREAVRKERSYELSFEGHRRQDLIRWGIYYKTVQATAKELGYWWEGTGSPNYSVATYTEEGKHELFPIPQRDMDLCIQFNQNPKW,glycan array binding signal (z-score),[1],-0.195
same,glycan array binding signal (z-score),[2],-0.173
same,glycan array binding signal (z-score),[3],-0.329
same,glycan array binding signal (z-score),Fuc(a1-4)GlcNAc,-0.378
same,glycan array binding signal (z-score),Fuc(b1-3)GlcNAc,-0.208
same,glycan array binding signal (z-score),Gal(a1-2)Gal,-0.611
same,glycan array binding signal (z-score),Gal(a1-3)Gal,-0.305
same,glycan array binding signal (z-score),Gal(a1-3)Gal(b1-3)GlcNAc,-0.488
same,glycan array binding signal (z-score),[4],-0.276
same,glycan array binding signal (z-score),[5],4.31
same,glycan array binding signal (z-score),[6],-0.043
same,glycan array binding signal (z-score),[7],-0.588
same,glycan array binding signal (z-score),[8],-0.134
same,glycan array binding signal (z-score),Gal(a1-3)Gal(b1-4)Glc,-0.054
same,glycan array binding signal (z-score),Gal(a1-3)Gal(b1-4)GlcNAc,-0.077
same,glycan array binding signal (z-score),[9],-0.357
same,glycan array binding signal (z-score),[10],0.856
same,glycan array binding signal (z-score),[11],-0.394
same,glycan array binding signal (z-score),[12],-0.311
same,glycan array binding signal (z-score),[13],-0.309
same,glycan array binding signal (z-score),[14],2.12
same,glycan array binding signal (z-score),Gal(a1-3)GalNAc,-0.401
same,glycan array binding signal (z-score),[15],3.24
same,glycan array binding signal (z-score),[16],5.85
same,glycan array binding signal (z-score),Gal(a1-4)Gal(b1-4)Glc,-0.186
same,glycan array binding signal (z-score),Gal(a1-4)Gal(b1-4)GlcNAc,-0.381
same,glycan array binding signal (z-score),[17],-0.37
same,glycan array binding signal (z-score),[18],-0.107
same,glycan array binding signal (z-score),Gal(a1-4)GlcNAc,-0.493
same,glycan array binding signal (z-score),Gal(a1-6)Glc,-0.474
same,glycan array binding signal (z-score),Gal(b1-2)Gal,-0.499
same,glycan array binding signal (z-score),Gal(b1-3)Gal,-0.55
same,glycan array binding signal (z-score),Gal(b1-3)Gal(b1-4)GlcNAc,-0.213
same,glycan array binding signal (z-score),Gal(b1-3)GalNAc,-0.451
same,glycan array binding signal (z-score),[19],-0.246
same,glycan array binding signal (z-score),[20],-0.422
same,glycan array binding signal (z-score),Gal(b1-3)GalNAc(b1-3)Gal,-0.483
